{"source": "PubChem BioAssay AID504832", "about": "(National Center for Advancing Translational Sciences (NCATS), 2011)", "note": "Out of some 310,000 compounds screened, about 18,000 (5.8%) were called active. Inconclusive results, whose numbers are uncertain, are shown with a selection of clear calls. Calls come from the whole dose curve; as a rule, active = well fitted inhibition curve with a large enough effect; inconclusive = small, poorly fitted or top-dose-only effect, or another doubt; inactive = no such curve, though single readings can be large or run the other way. No potency is given beside an inconclusive call; the fits are too rough. % is set by controls: 0 for no effect and ±100 for the full control effect; potency is the fitted concentration of half-maximal effect; tags give direction and shape of the fitted curve."}
{"assay": "Primary qHTS for delayed death inhibitors of the malarial parasite plastid, 48 hour incubation", "details": "P. falciparum luciferase growth in erythrocytes; series mostly up to 28.7 µM; activity change, negative = inhibition: at the top concentration", "procedure,_shortened": "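Firefly luciferase activity from engineered P. falciparum reports growth; inhibitors lower the luminescent signal. Cultures contained 2% hematocrit erythrocytes at 0.1% final parasitemia.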"}
{"smiles": "Cc1sc2nc(CN3CCCCC3)nc(Nc3ccc4c(c3)OCCO4)c2c1C", "Potency": "active: 9.28 µM"}
{"smiles": "CN(C)c1nc(C#N)nc(N2CCOCC2)n1", "Potency": "inconclusive [inhibitor, partial curve, poor fit]"}
{"smiles": "COc1ccc(C(CNC(=O)COc2ccc(C)c(C)c2)N2CCCCC2)cc1", "note": "(stereo not given)", "Potency": "inconclusive [inhibitor, full curve]"}
{"smiles": "CCOC(=O)c1sc(NCCNc2nc(C)c(C(=O)OCC)s2)nc1C", "activity change, negative = inhibition": "inactive: -22.3%"}
{"smiles": "O=C1COCC(=O)N1CCc1c[nH]c2ccccc12", "Potency": "inconclusive [inhibitor, single point]"}
{"smiles": "Cc1ccc(-c2nc3ccccc3c(=O)n2CCN2CCOCC2)cc1", "Potency": "inconclusive [inhibitor, partial curve, poor fit]"}
{"smiles": "O=C(NCCCN1CCCC1=O)c1cc2ccccc2o1", "activity change, negative = inhibition": "inactive: 24.2%"}
{"smiles": "Cc1ccc(-c2nc(N)sc2CC(=O)OCC(=O)NC2CCCC(C)C2C)cc1", "note": "(stereo not given)", "activity change, negative = inhibition": "inactive: 9.59%"}
{"smiles": "CCC(=O)N1CCN(c2ccc(NC(=O)COc3ccccc3[N+](=O)[O-])cc2)CC1", "Potency": "inconclusive [inhibitor, partial curve, poor fit]"}
{"smiles": "COc1ccc(Cl)cc1NC(=O)[C@@H]1CCCN1C(=O)c1cccs1", "Potency": "inconclusive [inhibitor, partial curve]"}
{"smiles": "Cc1cc(C)c(S(=O)(=O)N2CCCOC2CNC(=O)C(=O)NCCCn2ccnc2)c(C)c1", "note": "(stereo not given)", "activity change, negative = inhibition": "inactive: -12.2%"}
{"smiles": "C=CCc1cc(Cl)ccc1OCCOCCNC(C)CC", "note": "(stereo not given)", "Potency": "inconclusive [inhibitor, partial curve]"}
{"smiles": "Cc1ccc(C)c(NC(=O)CNC(=O)N2CC(=O)Nc3ccccc32)c1", "activity change, negative = inhibition": "inactive: 31.7%"}
{"smiles": "O=C(Nc1cccc(S(=O)(=O)c2cccc(NC(=O)C3CC3)c2)c1)C1CC1", "Potency": "inconclusive [inhibitor, partial curve, poor fit]"}
{"smiles": "COc1ccc(C2C(C(=O)c3ccco3)=C(O)C(=O)N2CCc2ccccc2)cc1OC", "note": "(stereo not given)", "Potency": "inconclusive [inhibitor, full curve]"}
{"smiles": "COc1ccc(OCC(=O)Nc2cccc(NC(=O)c3ccco3)c2)cc1", "activity change, negative = inhibition": "inactive: -7.93%"}
{"smiles": "COc1ccc2ccc(O)c(CN(C)CC(=O)Nc3ccccc3C(F)(F)F)c2c1", "Potency": "active: 11.7 µM"}
{"smiles": "CCOc1ccc(-c2cc(C(=O)NCCCn3ccnc3)c3cc(Br)ccc3n2)cc1", "Potency": "active: 1.65 µM"}
{"smiles": "CN(Cc1ccccc1NC(=O)c1ccc(S(=O)(=O)N(C)C)cc1)C1CCCCC1", "Potency": "inconclusive [inhibitor, partial curve]"}
{"smiles": "CCOc1ccc(CN(C)Cc2cc(=O)oc3cc(C)c(Cl)cc23)cc1", "Potency": "inconclusive [inhibitor, single point]"}
